Results reported in the supplement of paper PMC11417369.
The other results are listed elsewhere or left out.

Tested on: PF3D7_0420300 AP2 domain 1 (GST-tagged)
Assay: gcPBM binding intensity (ln(normalized median fluorescence intensity)); higher = stronger DNA binding
Outline: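 Binding of GST-tagged P. falciparum DNA-binding domains, expressed in E. coli and used at about 25 μg on average, was carried out for 1 h in 1× PBS containing 1% milk, 0.2 mg/ml BSA, 0.5% salmon testes DNA and 0.03% Triton X-100. The target was an Agilent 4 × 180k array of primer-extended double-stranded 36-bp intergenic genomic probes plus negative controls, read with Alexa488 anti-GST antibody at 488 nm. Binding intensity is the highest Masliner-normalised natural-log median intensity across replicate spots of either probe orientation.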

Sequence | gcPBM binding intensity (ln)
TAATAAACTTAAAAATGTACATATATTTATTATTAC [XGTACX_site4321] | 9.19
AAATATATATTCATGTGTACACACAAAAAAAAATAA [XGTACX_site4552] | 9.75
AAAAATTTTCAAGTGTGTACATATTTTCATTTAACA [XGTACX_site6186] | 9.27
AAGAAAAAGTATCCTCTATCTTTATATAAACTATTA [TGCATGCA_negctrl_site2] | 9.02
TTTTTATTTAGCTAAGCATGCTAACGATGACACTTC [TGCATGCA_site79] | 8.86
TTTATACTTTTAAATTGTACTATAAAAAGGAATACA [XGTACX_site2537] | 8.96
ATGTATATATTTTTATGTACATATTTTTAATTTATA [XGTACX_site2982] | 9.2
CATACATATACTTTGTGTACATATATATATTATATA [XGTACX_site97] | 9.16
TAATAAAAAATTAAAAAAAATAAAAATAAAAATAAA [GTGCAC_negctrl_site78] | 9.1
AACAATATGGATGTATGTACACATATAGAACGTTAT [XGTACX_site7142] | 9.64
TATGCATTTATGCATTGTACTTTTATAGATTCCACC [XGTACX_site7121] | 8.84
TACAAAAAAAAAGAACGTACAAAAAATTTCAAAAAT [XGTACX_site5860] | 9.51
GAAATTTTATTACTTTTACACACCTATATATTATTC [CACACA_site9076] | 9.53
ATATTATATATACACGCACACACACTAATATATATA [CACACA_site9092] | 10
TATGTATATATATTAACACACAAAAAAAAAAAAAAA [CACACA_site1812] | 9.27
ATGAACGGAAAAATATATATAAATATATATATCATG [XGTACX_negctrl_site342] | 8.97
TTAAACTATACCAAAACACACATACAAAATATAAAA [CACACA_site5494] | 9.65
TACATGATAGATCACACACACATATAAATATATATA [CACACA_site5562] | 9.86
TAAAATAACTCACAAAGTACAAAAATAAGCATATGA [XGTACX_site7046] | 9.48
ACATAAGACACAAATACACACAAAAATATATAACAA [CACACA_site4082] | 10
AAAATATATTAAGGCACACACATACAGATATATATA [CACACA_site5951] | 10
TACATACACAAATACACACACAAATACATACCCAAA [CACACA_site4550] | 10

Sequence | gcPBM binding intensity (ln)
TTTTTTCTTTTTTTTTTTTTTTTCTTTTTTTTTTTT [GTGCAC_negctrl_site196] | 8.99
TACGTGAAATTATATACACACATAAATATGGGTGTA [CACACA_site5687] | 9.29
GGTATACTCAAGTATACACACATATATATATATATA [CACACA_site5746] | 9.29
GTATATAAATAAATAGTGCATTATTAAAAATAATGT | 9.29
TTTTTTTTTTTTTATTGTACATACTTTTAAATATAT [XGTACX_site4303] | 9.13
TATCTCCACAAAAGATGTACTCATATTAATTTATAA [XGTACX_site3535] | 8.83
GTATACAACATATGAACACACAAAATATTTTTTTTT [CACACA_site2928] | 9.45
TTAAAGCTTGCATATACACACATACATAAATTCATA [CACACA_site7208] | 9.42
ATTGAGGCTGGTTATATAATAATTTTATTATTTTAG [GTGCAC_negctrl_site409] | 9.25
ATATATTTATATTTTTGTACCCAAAATTGTTTGATG [XGTACX_site3581] | 9.2
TAAAAGTTGAAGCACACACACAAAAGAAATACAATA [CACACA_site6649] | 10.1
TTTGTTATATTTAATACACACATATTATAAACACAT [CACACA_site7703] | 9.51
TATGAAAAGTAAAGTACACACAGGAAAAAAAAAAAA [CACACA_site1749] | 9.61
ATAAATAAAGGACACACACACACACTAATAAAAAAA [CACACA_site8840] | 10.3
TATATAATATATTTATGTACTCACAATGGGGTCTAC [XGTACX_site2691] | 9.21
ATATATATATATATATGTACATAATGCATATAATAT [XGTACX_site6142] | 9.27
TTAATACTTTTTTCTGTACACACTTGATTTACTATA [CACACA_site2799] | 9.63
GAAGGAAAAGATACGATAAAATAAGATATTAATTTA [GTGCAC_negctrl_site419] | 9.05
TTCTTCAATATATTCTTACACACTTAAAAAAAAAAA [CACACA_site228] | 9.08
TAAACACCCATACATACACACATACATACACCCATA [CACACA_site5125] | 9.58
GTATTATATTTTAATACACACCCAAATATTAAAAAG [CACACA_site8968] | 9.48
TGCCATCATATCATAGGTACACAAACATATAAAGAA [XGTACX_site4137] | 9.31

Sequence | gcPBM binding intensity (ln)
AAATGTTCAGAAACTATTATAAAAATGGAATAATAT [CACACA_negctrl_site1544] | 9.25
TAAATATTATATTTATGTACATAAGTTTTTTTTAAT [XGTACX_site3559] | 9.08
CTTAATATGGATATTGCATGTAGAACATGAACAATA [TGCATGCA_site760] | 8.93
TTAACAAATAAATGCACACATATATATAAATAATAT [CACACA_site28] | 9.47
TTATGCTCAAAGAAAAGTACATAAATAAAAGTATAT [XGTACX_site7365] | 9.11
TATATGTAGATTAAACGTACTTACAACGGAATTATC [XGTACX_site3036] | 9.37
GTTCATATAATAAAATGTACATAATATATTATATAT [XGTACX_site7623] | 9.19
AAATTACTGTAAAAAAGTACAGAAGTTCTTATTTTT [XGTACX_site7416] | 8.98
AGTTTAATTTTGTATACACACATTTGAATTATTAAT [CACACA_site7625] | 9.6
AACAAATATGATTTTTTATATATTTTTAAATTTGGT [GTGCAC_negctrl_site189] | 9.06
AGCTACAAAAATTAATATATATATGTATAGTTATAC [TGCATGCA_negctrl_site531] | 9.2
TATATCTATTTCAAATGTACTTATATGATTCTTATA [XGTACX_site6277] | 9.04
AAAAAAAAAATTATATATATATCCCTTATTTTTTCT [TGCATGCA_negctrl_site151] | 9.14
CATACACAGAAACACACACACATATATACATATATA [CACACA_site1094] | 10.1
TCATATATATTGAAATGTACTTATTTTTTCCTCATA [XGTACX_site6526] | 9.17
TATACATAGAAACACACACACATAAATAAATATATA [CACACA_site1342] | 10.1
CCTTAAATAATATATTCACACAATATAACAAAAATT [CACACA_site4892] | 9.26
TGGTATATAAAACACACACACATATGTATATATATA [CACACA_site926] | 9.81
ACTACGAATGGTAGAGTGCAGTCTGGAGAAGAGTAC [GTGCAC_site9685] | 9.36
GCATACATCAAGCACACACACACACGCACACGCACA [CACACA_site6311] | 10.3
AAAAAAAAGAATTAGGCACACAATTTTAATATAGGA [CACACA_site1522] | 9.29
GTGAAGTTCAAAATATGTACTTATGTATGTATTTTT [XGTACX_site165] | 9.18

Sequence | gcPBM binding intensity (ln)
TTATGGATGGACAATAATAAAATTTTTACTTTTATT [CACACA_negctrl_site908] | 9.06
TTATGTTTCATAAAAAATTAATCAAACATATATAAG [CACACA_negctrl_site666] | 8.9
AAGCTTAAAAATGGGGGTACGTCATAGGGATTCAAC [XGTACX_site8080] | 9.36
AATATATAAACATATACACACAAAAACATATATATA [CACACA_site4855] | 10
TTTGACACAATATTTTGTACGAAACTATTAATTCAA [XGTACX_site4853] | 8.92
TTGCTTTTCATTTATTGTACATACCCAGTAGGATAA [XGTACX_site3939] | 9.26
GACATAGTATTAAGTTGTACATATATAAAAATAAAT [XGTACX_site1583] | 9.29
ATGTTTTCAAAAATAAAACATATAAATAAATAAATA [TGCATGCA_negctrl_site226] | 9.05
TTACGAATGAATATATGTACATATATATATATATAT [XGTACX_site3790] | 9.26
AATGTACACGCACCCACACACAAACAAATATAAATA [CACACA_site7319] | 9.81
CAACAACAAATGAGAAGTACATAAATATTAACAATA [XGTACX_site4625] | 9.51
TTATAATACCTACAAAGTACAAACTTAAATATGAAC [XGTACX_site5684] | 9.34
ATATGTTTTAAGTGTACACATATAATGTATTTTGTT [CACACA_site4929] | 9.49
TTGCTCATTGAAATTATACACACCAAATATATAAAT [CACACA_site2482] | 9.32
AACCTATCTATAGGAACAATATATATATATATAATT [CACACA_negctrl_site1707] | 9.24
TATTATGCTATTTAATGTACGGAATTTATATATATA [XGTACX_site564] | 9.14
AAAATATATAAACGCACATATATTTATGTATATATA [CACACA_negctrl_site163] | 9.37
TAAAAAAAAACATGATGTACATAAAATTTTTTACTT [XGTACX_site7056] | 9.12
TTATTAGAGATGTTAAGATATAGGGATAATTTCGAT [XGTACX_negctrl_site395] | 9.06
TACATATATTTAAGGAGTACAAAAAATAATGATAAA [XGTACX_site3539] | 9.31
AAAAGGGAAAAAATTAAAATTATATATATATATATG [CACACA_negctrl_site137] | 8.98
TTTGTTCAATTTACATGTACAGATATAATCTAACAT [XGTACX_site370] | 9.1
